Assay results: paper PMC12820563
Some of the results follow. The list includes weakly bound sequences.

The sequences below were run against T1, MBP-FoxP3dN (UniProt Q99JB6) (assay: PD-seq (MBP pull-down with sequencing)). Settings: 20 mM Tris-HCl pH 7.5, 100 mM NaCl, 1.5 mM MgCl2, 0.4 uM protein, 0.1 uM dsDNA library, 30 min, room temperature, amylose pull-down; high values mean tight binding; double strand, one strand shown.
T1 sequence: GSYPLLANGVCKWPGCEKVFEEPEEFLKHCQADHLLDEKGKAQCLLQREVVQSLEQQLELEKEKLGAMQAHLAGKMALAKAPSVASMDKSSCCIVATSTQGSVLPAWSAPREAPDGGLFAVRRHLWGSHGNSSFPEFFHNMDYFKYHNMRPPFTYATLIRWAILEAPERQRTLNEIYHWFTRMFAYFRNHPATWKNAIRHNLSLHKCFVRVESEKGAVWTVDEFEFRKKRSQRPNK

Row | Sequence | binding signal (RPM ratio (pull-down/input))
1 | GATGATTGTTCTCCCAGCTGATGAATTTCACTTATCGAGTAAACAAATTTTCCTAATCTTTCTGTTCAAGCGCCATCTAC | 0.683
2 | GATGATTGTTCTCCCAGCTGATGAATTGCTTGATTCGAGTAAACAAATTTTCCTAATCTTTCTGTTCAAGCGCCATCTAC | 0.704
3 | GATGATTGTTCTCCCAGCTGATGAATTAAGTTGGTCGAGTAAACAAATTTTCCTAATCTTTCTGTTCAAGCGCCATCTAC | 2.4
4 | GATGATTGTTCTCCCAGCTGATGAATTACTCCCTTCGAGTAAACAAATTTTCCTAATCTTTCTGTTCAAGCGCCATCTAC | 0.319
5 | GATGATTGTTCTCCCAGCTGATGAATTTAAAAGATCGAGTAAACAAATTTTCCTAATCTTTCTGTTCAAGCGCCATCTAC | 0.198
6 | GATGATTGTTCTCCCAGCTGATGAATTAGGCACATCGAGTAAACAAATTTTCCTAATCTTTCTGTTCAAGCGCCATCTAC | 0.892
7 | GATGATTGTTCTCCCAGCTGATGAATTTCTTTTGTCGAGTAAACAAATTTTCCTAATCTTTCTGTTCAAGCGCCATCTAC | 1.65
8 | GATGATTGTTCTCCCAGCTGATGAATTAAAATTCTCGAGTAAACAAATTTTCCTAATCTTTCTGTTCAAGCGCCATCTAC | 0.341
9 | GATGATTGTTCTCCCAGCTGATGAATTGGGACTTTCGAGTAAACAAATTTTCCTAATCTTTCTGTTCAAGCGCCATCTAC | 1.05
10 | GATGATTGTTCTCCCAGCTGATGAATTTGTGAGTTCGAGTAAACAAATTTTCCTAATCTTTCTGTTCAAGCGCCATCTAC | 5.06
11 | GATGATTGTTCTCCCAGCTGATGAATTGCTGGTCTCGAGTAAACAAATTTTCCTAATCTTTCTGTTCAAGCGCCATCTAC | 0.743
12 | GATGATTGTTCTCCCAGCTGATGAATTGGATAGTTCGAGTAAACAAATTTTCCTAATCTTTCTGTTCAAGCGCCATCTAC | 0.766
13 | GATGATTGTTCTCCCAGCTGATGAATTAACTATGTCGAGTAAACAAATTTTCCTAATCTTTCTGTTCAAGCGCCATCTAC | 0.386
14 | GATGATTGTTCTCCCAGCTGATGAATTTAATACTTCGAGTAAACAAATTTTCCTAATCTTTCTGTTCAAGCGCCATCTAC | 0.482
15 | GATGATTGTTCTCCCAGCTGATGAATTAAGATTCTCGAGTAAACAAATTTTCCTAATCTTTCTGTTCAAGCGCCATCTAC | 0.549
16 | GATGATTGTTCTCCCAGCTGATGAATTAATGCTATCGAGTAAACAAATTTTCCTAATCTTTCTGTTCAAGCGCCATCTAC | 1.89
17 | GATGATTGTTCTCCCAGCTGATGAATTTCGGATTTCGAGTAAACAAATTTTCCTAATCTTTCTGTTCAAGCGCCATCTAC | 0.322
18 | GATGATTGTTCTCCCAGCTGATGAATTTACACGTTCGAGTAAACAAATTTTCCTAATCTTTCTGTTCAAGCGCCATCTAC | 0.569
19 | GATGATTGTTCTCCCAGCTGATGAATTCGCAGTCTCGAGTAAACAAATTTTCCTAATCTTTCTGTTCAAGCGCCATCTAC | 0.546
20 | GATGATTGTTCTCCCAGCTGATGAATTGAATCGCTCGAGTAAACAAATTTTCCTAATCTTTCTGTTCAAGCGCCATCTAC | 0.332
21 | GATGATTGTTCTCCCAGCTGATGAATTATAGAGGTCGAGTAAACAAATTTTCCTAATCTTTCTGTTCAAGCGCCATCTAC | 0.292

Row | Sequence | binding signal (RPM ratio (pull-down/input))
22 | GATGATTGTTCTCCCAGCTGATGAATTCAAGTATTCGAGTAAACAAATTTTCCTAATCTTTCTGTTCAAGCGCCATCTAC | 0.851
23 | GATGATTGTTCTCCCAGCTGATGAATTATCGCAATCGAGTAAACAAATTTTCCTAATCTTTCTGTTCAAGCGCCATCTAC | 2.89
24 | GATGATTGTTCTCCCAGCTGATGAATTGACGCTATCGAGTAAACAAATTTTCCTAATCTTTCTGTTCAAGCGCCATCTAC | 0.96
25 | GATGATTGTTCTCCCAGCTGATGAATTTTAGCCTTCGAGTAAACAAATTTTCCTAATCTTTCTGTTCAAGCGCCATCTAC | 2.35
26 | GATGATTGTTCTCCCAGCTGATGAATTGAGTCGATCGAGTAAACAAATTTTCCTAATCTTTCTGTTCAAGCGCCATCTAC | 0.374
27 | GATGATTGTTCTCCCAGCTGATGAATTTAGTAACTCGAGTAAACAAATTTTCCTAATCTTTCTGTTCAAGCGCCATCTAC | 1.77
28 | GATGATTGTTCTCCCAGCTGATGAATTTGTACGCTCGAGTAAACAAATTTTCCTAATCTTTCTGTTCAAGCGCCATCTAC | 2.02
29 | GATGATTGTTCTCCCAGCTGATGAATTCCGGCTCTCGAGTAAACAAATTTTCCTAATCTTTCTGTTCAAGCGCCATCTAC | 0.325
30 | GATGATTGTTCTCCCAGCTGATGAATTGGTGCTCTCGAGTAAACAAATTTTCCTAATCTTTCTGTTCAAGCGCCATCTAC | 0.609
31 | GATGATTGTTCTCCCAGCTGATGAATTATTATGCTCGAGTAAACAAATTTTCCTAATCTTTCTGTTCAAGCGCCATCTAC | 0.959
32 | GATGATTGTTCTCCCAGCTGATGAATTGGCAACTTCGAGTAAACAAATTTTCCTAATCTTTCTGTTCAAGCGCCATCTAC | 1.69
33 | GATGATTGTTCTCCCAGCTGATGAATTTCCGCTCTCGAGTAAACAAATTTTCCTAATCTTTCTGTTCAAGCGCCATCTAC | 0.388
34 | GATGATTGTTCTCCCAGCTGATGAATTTTGAGGATCGAGTAAACAAATTTTCCTAATCTTTCTGTTCAAGCGCCATCTAC | 0.327
35 | GATGATTGTTCTCCCAGCTGATGAATTGGTGTTGTCGAGTAAACAAATTTTCCTAATCTTTCTGTTCAAGCGCCATCTAC | 3.18
36 | GATGATTGTTCTCCCAGCTGATGAATTAATGGCTTCGAGTAAACAAATTTTCCTAATCTTTCTGTTCAAGCGCCATCTAC | 0.514
37 | GATGATTGTTCTCCCAGCTGATGAATTTGTAGCTTCGAGTAAACAAATTTTCCTAATCTTTCTGTTCAAGCGCCATCTAC | 4.01
38 | GATGATTGTTCTCCCAGCTGATGAATTCAGGCTTTCGAGTAAACAAATTTTCCTAATCTTTCTGTTCAAGCGCCATCTAC | 0.709
39 | GATGATTGTTCTCCCAGCTGATGAATTCGCCGCCTCGAGTAAACAAATTTTCCTAATCTTTCTGTTCAAGCGCCATCTAC | 0.621
40 | GATGATTGTTCTCCCAGCTGATGAATTAGAATGTTCGAGTAAACAAATTTTCCTAATCTTTCTGTTCAAGCGCCATCTAC | 0.671
41 | GATGATTGTTCTCCCAGCTGATGAATTGGACACGTCGAGTAAACAAATTTTCCTAATCTTTCTGTTCAAGCGCCATCTAC | 0.371
42 | GATGATTGTTCTCCCAGCTGATGAATTGAACTGTTCGAGTAAACAAATTTTCCTAATCTTTCTGTTCAAGCGCCATCTAC | 0.372

Row | Sequence | binding signal (RPM ratio (pull-down/input))
43 | GATGATTGTTCTCCCAGCTGATGAATTGTGAATATCGAGTAAACAAATTTTCCTAATCTTTCTGTTCAAGCGCCATCTAC | 0.91
44 | GATGATTGTTCTCCCAGCTGATGAATTCACTTGCTCGAGTAAACAAATTTTCCTAATCTTTCTGTTCAAGCGCCATCTAC | 0.587
45 | GATGATTGTTCTCCCAGCTGATGAATTCTGCGACTCGAGTAAACAAATTTTCCTAATCTTTCTGTTCAAGCGCCATCTAC | 2.57
46 | GATGATTGTTCTCCCAGCTGATGAATTGTAAACGTCGAGTAAACAAATTTTCCTAATCTTTCTGTTCAAGCGCCATCTAC | 0.874
47 | GATGATTGTTCTCCCAGCTGATGAATTGCTTATATCGAGTAAACAAATTTTCCTAATCTTTCTGTTCAAGCGCCATCTAC | 1.61
48 | GATGATTGTTCTCCCAGCTGATGAATTCGAACTATCGAGTAAACAAATTTTCCTAATCTTTCTGTTCAAGCGCCATCTAC | 0.371
49 | GATGATTGTTCTCCCAGCTGATGAATTACTACTCTCGAGTAAACAAATTTTCCTAATCTTTCTGTTCAAGCGCCATCTAC | 0.421
50 | GATGATTGTTCTCCCAGCTGATGAATTTTCGCAGTCGAGTAAACAAATTTTCCTAATCTTTCTGTTCAAGCGCCATCTAC | 0.491
51 | GATGATTGTTCTCCCAGCTGATGAATTACTCATATCGAGTAAACAAATTTTCCTAATCTTTCTGTTCAAGCGCCATCTAC | 0.57
52 | GATGATTGTTCTCCCAGCTGATGAATTGACTATCTCGAGTAAACAAATTTTCCTAATCTTTCTGTTCAAGCGCCATCTAC | 0.408
53 | GATGATTGTTCTCCCAGCTGATGAATTAAAGTTTTCGAGTAAACAAATTTTCCTAATCTTTCTGTTCAAGCGCCATCTAC | 0.585
54 | GATGATTGTTCTCCCAGCTGATGAATTTTCTCATTCGAGTAAACAAATTTTCCTAATCTTTCTGTTCAAGCGCCATCTAC | 0.34
55 | GATGATTGTTCTCCCAGCTGATGAATTCATACTCTCGAGTAAACAAATTTTCCTAATCTTTCTGTTCAAGCGCCATCTAC | 0.47
56 | GATGATTGTTCTCCCAGCTGATGAATTTGTGATATCGAGTAAACAAATTTTCCTAATCTTTCTGTTCAAGCGCCATCTAC | 2.2
57 | GATGATTGTTCTCCCAGCTGATGAATTCAGCACGTCGAGTAAACAAATTTTCCTAATCTTTCTGTTCAAGCGCCATCTAC | 1.04
58 | GATGATTGTTCTCCCAGCTGATGAATTGTGACGCTCGAGTAAACAAATTTTCCTAATCTTTCTGTTCAAGCGCCATCTAC | 0.892
59 | GATGATTGTTCTCCCAGCTGATGAATTCAAAAGTTCGAGTAAACAAATTTTCCTAATCTTTCTGTTCAAGCGCCATCTAC | 0.188
60 | GATGATTGTTCTCCCAGCTGATGAATTAGTGCAATCGAGTAAACAAATTTTCCTAATCTTTCTGTTCAAGCGCCATCTAC | 4.39
61 | GATGATTGTTCTCCCAGCTGATGAATTGCACTATTCGAGTAAACAAATTTTCCTAATCTTTCTGTTCAAGCGCCATCTAC | 1.07
62 | GATGATTGTTCTCCCAGCTGATGAATTCCCGACTTCGAGTAAACAAATTTTCCTAATCTTTCTGTTCAAGCGCCATCTAC | 0.448
63 | GATGATTGTTCTCCCAGCTGATGAATTGTCCTATTCGAGTAAACAAATTTTCCTAATCTTTCTGTTCAAGCGCCATCTAC | 0.45
